# Laboratory results from PubChem BioAssay AID588342 (National Center for Advancing Translational Sciences (NCATS), 2011).
# Values joined by “and” are separate entries in the source; they are usually repeats but may differ in a detail not shown here. Equal entries are not always repeated. About 25,000 (6.9%) of roughly 360,000 compounds were called active. The inconclusive results got no clear call from the source; some entries with a clear call stand among them for comparison. Calls come from the whole dose curve; as a rule, active = well fitted inhibition curve with a large enough effect; inconclusive = small, poorly fitted or top-dose-only effect; inactive = flat fitted curve, though single readings scatter. Potencies beside an inconclusive call are fits to weak or partial responses and may not hold up.
# Target: Luciferin 4-monooxygenase (Photinus pyralis) (UniProt P08659)
# Experiment: qHTS profiling assay for firefly luciferase inhibitor/activator using purifed enzyme and Km concentrations of substrates (counterscreen for miR-21 project); note: nearly all actives have a fitted effect of over 55% in size;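 for activity change, negative = inhibition: plate controls were vehicle for no effect and reference inhibitor for full effect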
# Conditions: purified FLuc, luminescence inhibition; activity change, negative = inhibition: at 57.5 µM (top of the series)
# Method in brief: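 Biochemical qHTS of compounds, final roughly 60 µM downward over six points, against 10 nM purified firefly luciferase using Km concentrations of substrates (10 uM D-luciferin, 10 uM ATP) in Tris acetate pH 7.5 buffer; luminescence output.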
# Potency is the fitted concentration of half-maximal effect; tags give direction and shape of the fitted curve.
# Sequence of UniProt P08659 (P08659 whole entry, looked up): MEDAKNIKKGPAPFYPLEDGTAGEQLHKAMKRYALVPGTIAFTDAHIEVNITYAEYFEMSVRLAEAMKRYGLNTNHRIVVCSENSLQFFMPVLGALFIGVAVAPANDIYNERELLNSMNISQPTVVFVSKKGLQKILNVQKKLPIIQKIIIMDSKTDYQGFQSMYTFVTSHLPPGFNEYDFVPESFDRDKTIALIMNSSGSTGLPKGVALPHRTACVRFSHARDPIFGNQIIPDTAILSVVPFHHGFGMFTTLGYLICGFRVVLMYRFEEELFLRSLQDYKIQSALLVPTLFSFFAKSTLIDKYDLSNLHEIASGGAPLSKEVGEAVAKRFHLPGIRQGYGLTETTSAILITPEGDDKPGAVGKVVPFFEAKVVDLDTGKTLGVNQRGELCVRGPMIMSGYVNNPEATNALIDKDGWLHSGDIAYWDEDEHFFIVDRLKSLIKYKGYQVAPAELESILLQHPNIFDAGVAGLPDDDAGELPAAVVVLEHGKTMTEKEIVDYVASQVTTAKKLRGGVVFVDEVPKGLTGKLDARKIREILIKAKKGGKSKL
Compound,Potency,"activity change, negative = inhibition"
c1ccc(-c2cncn2-c2ccccc2)cc1,"inconclusive: 26.9 µM [inhibitor, partial curve, poor fit]",
O=c1c2[nH]c3ccccc3c2nc2n1CCCS2,"inconclusive: 37.9 µM [inhibitor, single point]",
CN(C)c1ccc(-n2c(CCC(=O)O)ccc2-c2ccccc2)cc1,"inconclusive: 16.9 µM [inhibitor, partial curve]",
Cc1cccc(NC(=O)c2nc[nH]c2C(=O)NCCCCCCNC(=O)c2[nH]cnc2C(=O)Nc2cccc(C)c2)c1,,inactive: -1.88%
O=C(NC1CC1)c1ccc(-n2cccc2)cc1,"inconclusive: 30.1 µM [inhibitor, single point]",
CCOC(=O)c1c(O)c2ccccc2n(CC)c1=O,"inconclusive: 8.49 µM [inhibitor, partial curve]",
COc1ccc(S(=O)(=O)c2c(C)c(NS(=O)(=O)c3ccccc3)cc(C)c2O)cc1,"inconclusive: 37.9 µM [inhibitor, partial curve, poor fit] and inconclusive: 30.1 µM [inhibitor, partial curve, poor fit]",
COC(=O)c1ccc(NC(=O)CC(=O)Nc2ccc(C(=O)OC)cc2)cc1,,inactive: 0.657%
Cc1ccc2nc(NC(=O)CSCC(=O)Nc3cc(C)on3)sc2c1,"inconclusive: 2.39 µM [inhibitor, full curve]",
CCC(=O)NCCc1nc2cc(NC(=O)c3ccco3)ccc2n1C,active: 16.9 µM,
COc1cc(C(c2c(C)[nH][nH]c2=O)c2c(C)[nH][nH]c2=O)ccc1OC(=O)c1cccc(C)c1,"inconclusive: 23.9 µM [inhibitor, single point]",
CN(Cc1ccc(N(C)C)cc1)C(=O)c1cc2ccccc2o1,"inconclusive: 37.9 µM [inhibitor, single point]",
COc1ccc2cc3cc(C(=O)NCCCN4CCc5ccccc5C4)sc3nc2c1,active: 9.53 µM,
CCCCNC1=CC(=O)C(=O)c2ccccc21,"inconclusive: 2.69 µM [inhibitor, full curve]",
CC(=O)Nc1nc2c(s1)CCc1ccccc1-2,"inconclusive: 37.9 µM [inhibitor, partial curve, poor fit]",
O=C(O)c1cc(S(=O)(=O)Nc2cc(Cl)ccc2Oc2ccccc2)ccc1O,"inconclusive: 37.9 µM [inhibitor, partial curve, poor fit]",
CCc1ccc(Cn2c(CNS(=O)(=O)c3ccc(F)c(Cl)c3)nc3cccnc32)cc1,,inactive: -7.75%
CCOc1[nH]c(/N=C/c2ccco2)c(C#N)c1C#N,"inconclusive: 26.9 µM [inhibitor, single point]",
O=C(Nc1ccccc1C(=O)Nc1ccccn1)c1ccccc1F,"inconclusive: 21.3 µM [inhibitor, partial curve, poor fit]",
Cc1nc2ccc(C(=O)Nc3ccc4nc[nH]c4c3)cc2[nH]1,"inconclusive: 23.9 µM [inhibitor, single point]",
CCCSc1nnc2c(n1)OC(c1sccc1C)Nc1ccccc1-2 (centres undefined),"inconclusive: 6.75 µM [inhibitor, partial curve]",
CCOC(=O)c1ccccc1NC(=O)c1ccc2c(=O)n3c(nc2c1)CCCCC3,"inconclusive: 21.3 µM [inhibitor, single point]",
O=C(CSc1nccc2ccccc12)N1CCN(c2ccccn2)CC1,"inconclusive: 23.9 µM [inhibitor, single point]",

Compound,Potency,"activity change, negative = inhibition"
Cn1nnnc1SCCNC(=O)C1CCC(=O)N(Cc2ccccc2F)C1 (centres undefined),,inactive: -0.172%
CCCNC(=O)C(=O)Nc1ccc(N(C)C)cc1,active: 13.5 µM,
CCCn1c(=O)c(C(=O)OCC)c(O)c2cc(Br)ccc21,"inconclusive: 6.75 µM [inhibitor, full curve]",
Cc1coc2c1c(C)cc1oc(=O)c(CC(=O)NCC(=O)NCC(=O)O)c(C)c12,"inconclusive: 26.9 µM [inhibitor, partial curve]",
CCOC(=O)C(=CNc1ccccc1Cl)C(=O)OCC,,inactive: -6.78%
COc1ccccc1NC(=O)C(C(C)C)N1C(=O)c2ccccc2C1=O (centres undefined),,inactive: -3.84%
CC(=O)c1cccc(NC(=O)C2COc3ccccc3O2)c1 (centres undefined),"inconclusive: 33.8 µM [inhibitor, single point]",
COC(=O)c1sccc1NC(=O)Nc1ccccc1F,active: 13.5 µM,
CCc1nc2oc3ccccc3c(=O)c2c(=O)n1-c1ccccc1,,inactive: -1.04%
O=C(NCCOc1ccccc1F)Nc1ccc(Br)cc1,"inconclusive: 16.9 µM [inhibitor, partial curve]",
O=C(CSc1nc2ccccc2n1Cc1ccc(Cl)cc1)N/N=C/c1ccccc1C(=O)O,"inconclusive: 30.1 µM [inhibitor, partial curve, poor fit]",
Cc1ccc(NC(=O)CN2C(=O)COc3ccc(S(=O)(=O)N4CCCC4)cc32)cc1C,"inconclusive: 30.1 µM [inhibitor, single point]",
CC(C)=C(NC(=O)c1ccccc1Br)C(=O)NCCc1nc2ccccc2[nH]1,"inconclusive: 26.9 µM [inhibitor, partial curve, poor fit]",
Nc1cc(C(=O)OCC(=O)c2ccc(CC(=O)N3CCOCC3)s2)ccc1Cl,"inconclusive: 23.9 µM [inhibitor, partial curve]",
COC(=O)N/N=C/c1ccc(OC(=O)c2ccco2)c(OC)c1,"inconclusive: 23.9 µM [inhibitor, single point]",
COc1ccc(/C(N)=N/OC(=O)CCc2ccccc2)cc1,"inconclusive: 19 µM [inhibitor, partial curve]",
Cc1cc(C(C#N)c2ccccc2F)n2ncnc2n1 (centres undefined),"inconclusive: 16.9 µM [inhibitor, partial curve, poor fit]",
Fc1cccc(C2NN=C(c3ccccc3)S2)c1 (centres undefined),active: 1.07 µM,
CCCOC(=O)CSc1ncnc2sc3c(c12)CCC(C)C3 (centres undefined),active: 8.49 µM,
Cc1ccc2oc(=O)c(-c3ccc(O)cc3)c(C)c2c1,"inconclusive: 21.3 µM [inhibitor, partial curve, poor fit]",
Clc1ccc(CNCc2cccs2)cc1Cl,"inconclusive: 37.9 µM [inhibitor, single point]",
CC(=O)c1cc(-c2ccc(F)cc2)n(CCC(=O)NC(C)(C)C)c1C,,inactive: 5.16%
CCC(=O)c1ccc(OCC(=O)NCC2COc3ccccc3O2)cc1 (centres undefined),,inactive: 4.49%

Compound,Potency,"activity change, negative = inhibition"
CCCc1ccc2oc(C(=O)N3CCC[C@H]3CO)c(C)c2c1,active: 10.7 µM,
Cc1cccc(C(=O)Nc2ccc(C(=O)Nc3ccc(O)cc3)cc2)c1,,inactive: -3.98%
Cc1nc2ccc(NC(=O)c3ccco3)cc2nc1C,"inconclusive: 26.9 µM [inhibitor, partial curve, poor fit]",
Cc1ccc(NC(=O)C(=O)NNC(=O)c2ccccc2C)cc1Cl,,inactive: -9.51%
CCC(=O)N1N=C(c2ccc(C)cc2)CC1c1ccco1 (centres undefined),"inconclusive: 26.9 µM [inhibitor, single point]",
O=C(c1ccccc1)N1CCN(S(=O)(=O)c2ccc(Cl)c(C(F)(F)F)c2)CC1,,inactive: -1.57%
CCN1C(=S)SC(=O)C1=C1C=C(C)N(CCOC)C(C)=C1,active: 2.39 µM,
Cc1ccc(Cn2c(SCc3ccc(C(=O)N4CCCCCC4)cc3)nc3ccncc32)cc1,"inconclusive: 19 µM [inhibitor, partial curve]",
Nc1cc(C(F)(F)F)ccc1OCC1CCCO1 (centres undefined),"inconclusive: 33.8 µM [inhibitor, partial curve, poor fit]",
O=C(O)COc1ccc2occ(C(=O)c3ccccc3)c2c1,"inconclusive: 26.9 µM [inhibitor, single point]",
Cc1sc(NC(=O)c2ccccc2)c(C(=O)NC(C)C)c1C,"inconclusive: 3.79 µM [inhibitor, partial curve, poor fit]",
O=C(/C=C/c1cc[n+](CC(=O)c2ccc3cccc4c3c2CC4)cc1)c1ccc2cccc3c2c1CC3,"inconclusive: 37.9 µM [inhibitor, single point]",
CC(C)(C)C(=O)Nc1nc(=S)ss1,"inconclusive: 21.3 µM [inhibitor, partial curve, poor fit]",
C#CCSc1nnc(-c2ccc(O)cc2)o1,"inconclusive: 15.1 µM [inhibitor, partial curve]",
COC(=O)c1c(-c2cccs2)csc1NC(=O)COc1c(C)ccc(C)c1C,"inconclusive: 8.49 µM [inhibitor, partial curve, poor fit]",
O=[N+]([O-])c1ccc(-c2ccc(/C=N/c3c(-c4ccco4)nc4ccccn34)o2)cc1,"inconclusive: 10.7 µM [inhibitor, partial curve, poor fit]",
CCCCCSc1nc2sc3c(c2c(=O)n1-c1ccccc1)CCN(C(C)=O)C3,,inactive: -15.1%
O=c1cnnc(SCc2ccc([N+](=O)[O-])cc2)[nH]1,"inconclusive: 37.9 µM [inhibitor, partial curve, poor fit]",
O=C(OCc1nnc(-c2ccc(Cl)cc2)o1)c1ccncc1,"inconclusive: 19 µM [inhibitor, partial curve, poor fit]",
CN(C)c1ccc(Nc2c3c4c(cccc4n(C)c2=O)C(=O)c2ccccc2-3)cc1,"inconclusive: 7.57 µM [inhibitor, full curve]",
O=C(NCc1ccco1)c1nc2c(nnn2Cc2ccccc2Cl)c(=O)[nH]1,,inactive: -0.013%
Clc1ccc(CCNc2nc3ccccc3s2)cc1,"inconclusive: 21.3 µM [inhibitor, single point]",
CCOC(=O)c1ccc(NC(=O)N2CCOc3ccccc32)cc1,,inactive: 0.055%
